The list shows a part of the results.
Test system: T1, C. trachomatis L2/434/Bu expressing GFP (CTL2-GFP)
T1 construct: L2/434/Bu GFP intracellular growth in HeLa cells
Design: species or system HeLa; C. trachomatis total inclusion area by high-content imaging, normalised to DMSO
Conditions: total inclusion area; 28.5 h, 10 µM; inhibitor
Summary of the method: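 High-content images of fixed, Hoechst-stained infected cultures supply inclusion area and count (growth) plus nuclei number (viability), complementing bulk GFP/resorufin fluorescence. MIC determination is unchanged from the primary assay.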

Row | Structure (SMILES) | % of control remaining
1 | NC(=O)CN1CC2(CCN(CC3COc4ccccc4O3)CC2)c2ccccc21 (centres unmarked) [CBK143960] | 102.402
2 | CC(C)c1cccc(-n2cc(O)c(C(=O)NCCC(=O)N(C)C)n2)c1 [CBK305234] | 77.7709
3 | N#Cc1c(O)nsc1Nc1ccc(Cl)cc1 [CBK009446] | 115.059
4 | Cc1cc(Br)cc(C)c1NC(=O)CSc1nnc(COc2ccccc2Cl)o1 [CBK264968] | 105.872
5 | OCC(O)CN1CCc2ccccc21 (centres unmarked) [CBK260896] | 83.1593
6 | CCOc1ccc2cc(C3CC(c4ccc(C)cc4)=NN3C(=O)CCC(=O)O)c(Cl)nc2c1 (centres unmarked) [CBK297508] | 90.2004
7 | O=C(c1ccncc1)n1nc(NCc2ccccc2)nc1NCc1ccccc1 [CBK269069] | 97.69
8 | O=c1c(N2CCCNCC2)nccn1CCOc1ccc(Br)cc1 [CBK028613T] | 73.7532
9 | CC(C)(C)c1csc(Nc2nc3cc4c(cc3s2)OCO4)n1 [CBK287491] | 79.1713
10 | COc1ccc(Cn2c(C)nc3ccccc32)cc1 [CBK201156] | 44.8922
11 | O=C(NCC1(c2ccccc2Cl)CC1)c1ccc(=O)n(CC(=O)N2CCCCC2)c1 [CBK286077] | 115.881
12 | O=C(CN1C(=O)c2ccccc2C1=O)NCC1COc2ccccc2O1 (centres unmarked) [CBK222526] | 107.447
13 | Cc1c(Cl)cccc1S(=O)(=O)N1CCCN(c2nc3ccc(Cl)cc3s2)CC1 [CBK014131] | 95.2857
14 | O=C(Nc1ccccc1)c1onc2c1CCCC2 [CBK058703] | 63.5842
15 | OC1(c2ccc(F)cc2)CC2CCC(C1)N2 (centres unmarked) [CBK281947] | 112.883
16 | O=[N+]([O-])c1cc(C(F)(F)F)ccc1NCCNC(=S)Nc1ccc(Cl)cc1 [CBK263578] | 73.471
17 | COc1ccccc1C(=O)N1CCC(Cc2ccccc2-c2ccccc2)(C(N)=O)CC1 [CBK285739] | 113.305
18 | CC(=O)Nc1ccc(-c2cccc(COC3CCN(C(=O)Cc4ccc(C#N)cc4)CC3)c2)cc1 [CBK149495] | 96.7871
19 | Cc1nc(C)n(CC2CCCN(CC(=O)NCc3ccccn3)C2)n1 (centres unmarked) [CBK305291] | 72.2679
20 | Cc1cccc(OCc2nnc(SCC(=O)NC3CCCCC3)o2)c1 [CBK264652] | 116.917
21 | Cc1nc(-c2ccccc2)cc([C@H]2CN3CC[C@H]2C[C@@H]3CNC(=O)NC(C)C)n1 [CBK289126] | 105.699
22 | Cc1ccc(F)cc1C(=O)NCC1CCN(c2cnn(C)c(=O)c2)C1 (centres unmarked) [CBK307235] | 88.3689
23 | Cc1cccc(C(=O)NCCCNC(=O)c2ccncc2)c1 [CBK269572] | 84.3151
24 | CCN(CC(C)C#N)C(=O)c1nn(-c2ccccc2)c(C)cc1=O (centres unmarked) [CBK304925] | 87.5546
25 | CCOC(=O)C1=NN(C)c2cnn(Cc3ccc(Cl)cc3)c(=O)c2C1C(=O)CC(C)C (centres unmarked) [CBK021389] | 111.988
26 | O=C(Cc1ccc(F)cc1)NCCn1nc(-c2ccco2)ccc1=O [CBK283706] | 91.5681
27 | Cc1ccc(C(=O)N2CCN(S(=O)(=O)c3cccc([N+](=O)[O-])c3)CC2)cc1 [CBK266259] | 85.5337

Row | Structure (SMILES) | % of control remaining
28 | CCCCN(C(C)=O)c1c(CC)nc2ccc(C(=O)NCCCn3ccnc3)cn12 [CBK145759] | 69.875
29 | CC(C)(CO)CNc1nc(-c2ccc(F)cc2)cnc1N [CBK063589] | 110.163
30 | COc1ccc(OC)c(/N=C2\CC(=O)CC(C)(C)C2)c1 [CBK020541] | 76.9914
31 | Cn1cc(C(=O)O)c(NC(=O)c2ccccc2Cl)n1 [CBK000353] | 97.702
32 | CC(NCC(=O)NC1(C#N)CCCCC1)C(C)n1cccn1 (centres unmarked) [CBK305129] | 123.633
33 | O=C1CN(C(=O)NCc2cccc(C(F)(F)F)c2)CCN1 [CBK155850] | 99.2591
34 | Cc1nc(CN2[C@H]3CCCCC(=O)N[C@@]3(C)C[C@H]2c2cccc(C(F)(F)F)c2)cs1 [CBK285701] | 123.649
35 | COc1ccc(C(=O)NCCCN(C)C)cc1Nc1cncc(-c2ccc(O)cc2)n1 [CBK126938T] | 83.8223
36 | O=C(Nc1ccccc1)N1C[C@@H]2C[C@H](C1)c1c(-c3cccnc3)ccc(=O)n1C2 [CBK289193] | 92.1519
37 | Cc1nn(C)c(N2CCNCC2)c1NC(=O)c1cnccn1 [CBK050308T] | 94.055
38 | CCS(=O)(=O)N1CCN(Cc2ccc3c(c2)OCO3)CC1 [CBK074545] | 110.766
39 | O=C(O)CCC(=O)N(Cc1ccco1)C1CC(=O)N(c2ccc(F)cc2)C1=O (centres unmarked) [CBK287059] | 83.735
40 | CCCCCC(=O)Nc1ccc(C(=O)Cn2nc(C(=O)O)c3ccccc3c2=O)cc1 [CBK295628] | 96.2801
41 | COc1ccccc1NS(=O)(=O)c1ccc(C)c(C(=O)NCC(c2ccco2)N2CCCCC2)c1 (centres unmarked) [CBK296669] | 86.337
42 | Cc1cc(C)c(S(=O)(=O)N2CCC(C(=O)NNC(=S)NC3CCCC3)CC2)c(C)c1 [CBK266844] | 102.682
43 | O=C(NCc1cccnc1)c1ncoc1-c1cccc(Cl)c1 [CBK282403] | 101.445
44 | O=C1CCC[C@]2(CN(Cc3ccccc3)C[C@H]2c2cccnc2)N1 [CBK283349] | 111.219
45 | CCN(CC)CCNc1nc2cc(Cl)ccc2[nH]1 [CBK262453] | 111.071
46 | O=S(=O)(Nc1nnn[nH]1)c1ccc(-c2ccon2)s1 [CBK062391] | 96.6505
47 | CN(CCOc1ccc(Cl)cc1)C(=O)COc1cc2ccccc2cc1C(=O)O [CBK296720] | 104.792
48 | Cc1noc2nc(-c3cccnc3)cc(C(=O)O)c12 [CBK288207] | 72.6052
49 | Cc1ccc(S(=O)(=O)Nc2nc(C)c(C(=O)O)s2)cc1[N+](=O)[O-] [CBK045565] | 93.2981
50 | Nc1nonc1C(=O)NCCNC(=O)c1ccco1 [CBK058480] | 106.519
51 | O=C1Nc2ccc(-c3ccc(Cl)cc3)cc2C(=O)N2CCN(C(=O)CO)C[C@H]12 [CBK289594] | 89.041
52 | O=C(O)COc1ccc(NC(=O)C2CCCO2)cc1 (centres unmarked) [CBK270063] | 89.6832
53 | COCCC(=O)NCc1ccc(OC2CCNCC2)cc1 [CBK024494T] | 118.761
54 | Cn1ccnc1CN1C(=O)CO[C@H]2CN(c3ncccn3)C[C@H]21 [CBK289704] | 40.3257

Row | Structure (SMILES) | % of control remaining
55 | Cc1nn(C(C)C)c(C)c1CN1CCN(C2CCCCC2)C(=O)C1 [CBK282562] | 97.8595
56 | COc1ccc(C)cc1S(=O)(=O)N(C)CC(=O)Nc1cccc(Cl)c1 [CBK269493] | 92.0923
57 | O=C(c1cccnc1)C1CCN(C(=O)Cc2ccccc2F)CC1 [CBK283814] | 79.1061
58 | COc1cc(CN2CCC(N3CCCCC3)CC2)c([N+](=O)[O-])cc1OC [CBK261858] | 95.4617
59 | Cc1ccccc1CC(=O)NCC(c1ccccc1Cl)N1CCOCC1 (centres unmarked) [CBK304564] | 48.4187
60 | CC1CCC2(CC1)NC(=O)N(Cc1csc(-c3ccco3)n1)C2=O (centres unmarked) [CBK304279] | 37.6543
61 | C=C(C)Cn1c(SCC(C)C)nnc1-c1cccs1 [CBK200086] | 89.0442
62 | CCN(CC)C(=O)C1CCCN(C(=O)Nc2cccnc2)C1 (centres unmarked) [CBK156157] | 89.3142
63 | Cn1nc(C2CC2)cc1C(=O)NCCCN1CCCc2ccccc21 [CBK282476] | 88.4491
64 | CN1CCN(C)C(COc2nccc(C(F)(F)F)n2)C1 (centres unmarked) [CBK113298] | 95.0186
65 | COc1ccc([C@@]23CC[C@@H](NC(=O)Nc4ccc(F)c(F)c4)C[C@@H]2N(C(=O)CN)CC3)cc1OC [CBK051679] | 67.2003
66 | CCCC(=O)N1CCC(Cc2ccc(-c3cccc(C)c3)cc2)(C(=O)NC)CC1 [CBK285786] | 108.517
67 | O=C(Cn1nc(C(F)(F)F)c2cccn2c1=O)NC1CCCC1 [CBK282867] | 73.6402
68 | O=C(CCn1c(C(F)F)cc2cccnc21)NC1CCCC1 [CBK285063] | 95.9108
69 | O=C(COc1ccc(Cl)cc1)NNC(=O)Cc1cccc2ccccc12 [CBK261693] | 104.604
70 | O=C(c1cc(S(=O)(=O)N2CCOCC2)ccc1Cl)N1CCCCC1 [CBK304377] | 35.8624
71 | CCOC(=O)C(C)n1ncc2c3sc(C)cc3n(C)c2c1=O (centres unmarked) [CBK284157] | 82.2179
72 | O=C(NC1CCCN(CC(F)(F)F)C1=O)c1cnc(-c2ccncc2)s1 (centres unmarked) [CBK306175] | 37.5348
73 | Cc1nn(-c2ccccn2)c2c1-c1oncc1CC2 [CBK287280] | 110.35
74 | C=CCn1c(Cc2csc(NC(=O)c3ccc(S(C)(=O)=O)cc3)n2)n[nH]c1=S [CBK295340] | 111.614
75 | Cc1ccc(NS(=O)(=O)c2ccc(OC(F)(F)F)cc2)nc1 [CBK043577] | 91.1276
76 | O=c1c(N2CCC(Sc3ccccc3)CC2)nccn1Cc1ccc(OC(F)(F)F)cc1 [CBK155257] | 85.8415
77 | O=C(CSCc1ccc(C(=O)O)cc1)Nc1ccc2ccccc2c1 [CBK299833] | 59.4712
78 | CC1(C)CC(=O)C2=C(C1)OC(=O)CC2c1ccc(Cl)cc1Cl (centres unmarked) [CBK007777] | 76.0493
79 | Cc1ccc(-n2c(C)c([N+](=O)[O-])c3ccc(O)cc32)cc1 [CBK094246] | 109.489
80 | Clc1ccc(Cn2ncc3c(NCc4cccnc4)ncnc32)cc1 [CBK300478] | 54.642

From article PMC12040169 (PLOS Biology, 2025)
